# Reference: ChEMBL document CHEMBL4888484, “Replenishing the malaria drug discovery pipeline: Screening and hit evaluation of the MMV Hit Generation Library 1 (HGL1) against asexual blood stage Plasmodium falciparum ,using a nano luciferase reporter read-out” (2022)
# Hit rate of the full screen: of about 150,000 compounds, about 540 (0.36%) showed an effect of 50% or more. The list shows a part of the results.
# Tested on: Plasmodium falciparum
# Assay: Primary screen in NF54 nanoGlo assay, in single point, at 2uM, 72h; a lower Z score goes with more inhibition
# Format: functional, Erythrocyte
# Conditions: timepoint 72 hour
Compound,% Inhibition [%],Z score
CN(C)C(=O)c1cccc(NCC2(N(C)C)CCCCC2)n1,-5,0.69
O=c1nc(Nc2ccccc2Oc2ccccc2)cn[nH]1,10,-1.84
COc1cc2c(cc1[C@H]1CC(=O)Nc3n[nH]cc31)OCCCO2,-2,0.47
CC(=O)Nc1ccc(CN2C[C@@H](F)[C@@H](OCc3nc4ccccc4o3)C2)cc1,-10,1.3
Cc1nnc(NC(=O)c2cn(Cc3cccc(Cl)c3)nc2C)s1,27,-3.07
CCc1nc(-c2cc(NC(=O)c3ccc(C)c(NC(C)=O)c3)c(C)s2)no1,-10,1.05
CC1(C)C[C@@H]2C[C@@](C)(CN2S(=O)(=O)N2CCCCC2)C1,-13,1.23
O=C(c1cc(-c2ccco2)n[nH]1)N1CCC(Oc2ccccn2)CC1,-4,0.71
c1ccc(-c2ncn(C[C@H]3COCCO3)c2-c2ncc[nH]2)cc1,-13,1.25
O=c1[nH]cccc1S(=O)(=O)N1CCCCCC1,-11,1.3
CCc1nc(C)c(C(=O)N2C[C@@H]3[C@H](C2)[C@H]2CC[C@@H]3O2)o1,-3,0.62
CC(=O)Nc1nc(-c2cccs2)c(CN2CCN(C)CC2)s1,-8,1.12
COc1ccccc1C(=O)Nc1ccc2nn(-c3ccc(N(C)C)cc3)nc2c1,-42,4.97
CCCc1cnc(C)nc1NC1CCN(CCO)CC1,3,-0.48
C[C@@H](Cn1cncn1)NC(=O)c1n[nH]c(=O)c2ccccc12,-4,0.71
Cc1csc(C(=O)N2C3CCC2CC(S(=O)(=O)c2ccccc2)C3)c1 (stereo unspecified),3,-0.38
COc1cccc(C(=O)N[C@H]2CCN(c3cc(-c4ccc(Cl)cc4)n[nH]3)C2)c1,-9,0.94
O=C(NC1CCC(F)C1)c1ccc(O)nc1 (stereo unspecified),-3,0.33
N#CC1(c2ccccc2)CC(Nc2ccc(OCCO)nc2)C1 (stereo unspecified),12,-1.48
Cn1cc(C(=O)NC2(c3cc(F)ccc3F)CC2)ccc1=O,-9,1.19
O=S1(=O)CCC(CNc2ncnc3[nH]ncc23)CC1,-13,2.12
CC(C)N1C[C@@H]2Oc3cc(C4CCOCC4)ccc3S(=O)(=O)NC[C@H](O)CN(C)[C@@H]2C1,-5,0.75

Compound,% Inhibition [%],Z score
Cc1cccc([C@@H](C#N)C(=O)c2coc3ccccc23)c1,-7,0.93
Cn1cnc2cc(C(=O)Nc3nc4c(s3)CCCC4)cnc21,-3,0.34
CCOc1ncccc1C(=O)Nc1ccc(OCc2ccccc2)cc1,8,-1.28
Cc1cc(-n2nc(C)nc2-c2cccc3c(=O)c4ccccc4[nH]c23)ccn1,-8,0.75
O=C(NCc1cccc(-c2cnco2)c1)C1(C(F)F)CCCC1,-21,2.82
Clc1c(CN2CCCC2)cccc1OC12CCCN(CC1)C2 (stereo unspecified),-3,0.66
Cc1nccnc1N1C[C@@H](CO)C[C@@H](CN2CCOCC2)C1,-7,1.46
COC(=O)[C@H](CS(=O)(=O)Nc1cc(C)n(C)n1)c1ccccc1,3,-0.46
CCO[C@H]1C[C@@H](O)C12CCN(C(=O)c1ccc3c4c([nH]c3c1)CCCC4)CC2,-15,1.96
COc1cccc(S(=O)(=O)N2CCc3nc(NC(=O)c4ccc(F)cc4Cl)sc3C2)c1,8,-0.71
CC(C)c1cc(C(=O)Nc2ccc(F)c(F)c2F)nn1-c1ccccn1,-5,0.52
CCCc1nc(C(=O)NCCCN(C)c2ccccc2)cs1,-9,1.87
Cc1ccc(CN2CCC3(CC2)CCN(C(=O)C2CCC2)C[C@@H]3CO)s1,-10,1.2
O=C(C1CCCCCC1)N1CCCC1C(O)C(F)(F)F (stereo unspecified),29,-3.32
CN1C[C@@H](C(=O)N2CCc3c([nH]n(CCO)c3=O)C2)Oc2ccccc21,-6,1.22
C[C@@H](CNC(=O)c1cn(C2CCCCCC2)nn1)Oc1cccnc1,16,-2.04
CCN(CC)Cc1cc(-c2nc(-c3cccnn3)no2)c(C)o1,-9,1.95
O=C(NCC1(N2CCOCC2)CCCCC1)Nc1ccc(-c2ccn[nH]2)cc1,-25,2.38
O=c1c(-c2nc(-c3ccc(F)cc3)no2)cnc2ccccn12,-6,0.89
CCN1CCC[C@@H]1CNC(=O)c1csc(NC(=O)c2ccccc2C)n1,-8,1.17
CCc1nnc(CNC(=O)[C@@H](C)Cn2cncn2)s1,-4,0.52
